Results: article PMC9249326 (2022)

Target: huAb45
Test: BLI

huAb45, sequence (P01138 122-241): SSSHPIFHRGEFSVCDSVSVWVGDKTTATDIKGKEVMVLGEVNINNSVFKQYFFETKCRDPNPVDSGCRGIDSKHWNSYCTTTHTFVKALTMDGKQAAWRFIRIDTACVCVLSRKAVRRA

Kd: < 1 pM
koff: < 1e-07 s⁻¹
B1: 6xHis-tagged human NGF (nerve growth factor) (ligand)
chain: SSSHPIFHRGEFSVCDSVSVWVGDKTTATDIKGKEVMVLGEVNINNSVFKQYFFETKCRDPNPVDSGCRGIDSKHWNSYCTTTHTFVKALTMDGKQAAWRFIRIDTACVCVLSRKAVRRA
